Measurements from the RNAGym collection of RNA variant scans (doi:10.1093/nar/gkz1192).
Read counts are not given, so values of variants with three or more changes are uncertain.

B1: CPEB3 Ribozyme (parent)
chain: UAACAGGGGGCCACAGCAGAAGCGUUCACGUCGCAGCCCCUGUCAGAUUCUGGUGAAUCUGCGAAUUCUGCUGUAUAUCUC

Variants of: B1
Assay: self-cleavage, relative activity (ratio to wild type); higher = more cleavage; in vitro, sequencing
In short: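 CPEB3 self-cleaving ribozyme mutant libraries were made by rounds of error-prone PCR, barcoded, and transcribed in vitro with T7 RNA polymerase for 5 hours at 37°C. Cleavage occurred during transcription and a 15 min DNase I step before EDTA stop. RNAs were reverse transcribed with template switching and Illumina-sequenced, with DNA sequencing mapping barcodes to variants. Relative activity is the variant's cleaved/total read fraction divided by wild type's (minimum 5 reads), averaged across three batches.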

| Variant | self-cleavage |
| --- | --- |
| A28C A45G U49C A56G | 0.29 |
| A28C A45G U54A | 0.39 |
| A28C A45G U54A A56G | 0.24 |
| A28C A45U A56G | 0.19 |
| A28C A45U A64U | 0.14 |
| A28C A45U U49C A64U | 0.18 |
| A28C A45U U60C G63C | 0.14 |
| A28C A56U A57G U60C | 0.17 |
| A28C A57G A64G | 0.45 |
| A28C A65G U80C | 0.58 |
| A28C C40G U43C A57U A64G U72C | 0.14 |
| A28C C62U C71A U80C | 0.07 |
| A28C G30A A45U U51C U54C U80C | 0.06 |
| A28C G30U A47G U49A U54C U72C | 0.13 |
| A28C G33A A57G U74A | 0.15 |
| A28C G52A A64U | 0.18 |
| A28C G53A U67C | 0.17 |
| A28C U31A A64G U69C | 0.46 |
| A28C U31C A64G | 0.21 |
| A28C U31C A64U U74C | 0.12 |
| A28C U31C C38A U48C U80C | 0.12 |
| A28C U31G A35U U51C U60A U67C | 0.11 |
| A28C U31G U78C | 0.14 |
| A28C U41C G53A G61A | 0.22 |

| Variant | self-cleavage |
| --- | --- |
| A28C U41C G73C | 0.5 |
| A28C U43A A57G A64G U69C U76C U80C | 0.15 |
| A28C U43C C44U A56G | 0.07 |
| A28C U48C U58C U60G G63A U72G U78C | 0.1 |
| A28C U49C A56U A65G | 0.13 |
| A28C U49C A64G A75G | 0.22 |
| A28C U51C U69A U78C | 0.04 |
| A28C U54C U60C U78C | 0.42 |
| A28C U60C U80C | 0.13 |
| A28C U66C G73U U80A | 0.12 |
| A28C U67C U69A | 0.15 |
| A28C U74A U80A | 0.85 |
| A28G A35G A45G C59A U80C | 0.33 |
| A28G A35G A47G U54C | 1.18 |
| A28G A35G A47G U67A U69C | 0.36 |
| A28G A35G A64U U67A | 0.42 |
| A28G A35G C37G U43C G46U A75G | 0.11 |
| A28G A35G C40U A65U | 0.21 |
| A28G A35G C40U U41C | 1.05 |
| A28G A35G G70A | 0.53 |
| A28G A35G U41C G52A U67A | 0.93 |
| A28G A35G U51A | 1.19 |
| A28G A35G U51C U74C U80C | 1.18 |
| A28G A35G U51G | 1.22 |

| Variant | self-cleavage |
| --- | --- |
| A28G A35G U66C | 0.64 |
| A28G A35G U69C U80A | 0.51 |
| A28G A35G U74C U80C | 1.23 |
| A28G A35G U74G A75G | 1.18 |
| A28G A35U G63A | 0.09 |
| A28G A35U U41C A56G | 0.26 |
| A28G A35U U41C A65G | 0.16 |
| A28G A35U U43C U60C | 0.07 |
| A28G A35U U48A G55U | 0.07 |
| A28G A35U U48C U80A | 0.11 |
| A28G A35U U49C U60C A77U U78C | 0.06 |
| A28G A35U U51G A57G | 0.16 |
| A28G A35U U54C U60C U67A U78A | 0.04 |
| A28G A35U U60C | 0.14 |
| A28G A35U U78A U80A | 0.21 |
| A28G A45C A56G | 0.21 |
| A28G A45G A47U U49C U69C G70A A77U | 0.1 |
| A28G A45G A64U U66A | 0.21 |
| A28G A45G A65G U69A U72A | 0.12 |
| A28G A45G A77U | 0.54 |
| A28G A45G U48C U51C U60A A65U | 0.15 |
| A28G A45G U48C U67C U74C | 0.15 |
| A28G A45G U60A U69C U78G | 0.09 |
| A28G A45G U67C U69A | 0.14 |

| Variant | self-cleavage |
| --- | --- |
| A28G A45U G73A | 0.93 |
| A28G A45U U48A A57G U69C U80C | 0.03 |
| A28G A45U U51C | 0.16 |
| A28G A45U U51C U80C | 0.09 |
| A28G A45U U67A | 0.08 |
| A28G A47G A65C | 0.23 |
| A28G A47G U49C U69A | 0.14 |
| A28G A47G U54A U80C | 0.5 |
| A28G A47G U54C | 0.34 |
| A28G A47G U54G | 0.34 |
| A28G A47U U51A U78C | 0.13 |
| A28G A56C U78A | 0.39 |
| A28G A56G A64U U76C | 0.1 |
| A28G A56G U58C A64U U78C | 0.07 |
| A28G A56G U72C | 0.57 |
| A28G A56G U74A U80C | 0.96 |
| A28G A56U A65G U67A U72A | 0.09 |
| A28G A56U U60C U66C U72A U76A | 0.04 |
| A28G A56U U66C | 0.13 |
| A28G A56U U66C U78C | 0.13 |
| A28G A56U U80A | 0.2 |
| A28G A57G U60C | 0.34 |
| A28G A57G U60C A64G | 0.17 |
| A28G A64G A65C | 0.16 |

| Variant | self-cleavage |
| --- | --- |
| A28G A64G A65G U69A U76C | 0.11 |
| A28G A64G A65U G73A | 0.17 |
| A28G A64G U72C | 0.19 |
| A28G A64G U74C A75U U78C | 0.8 |
| A28G A65G U69A | 0.09 |
| A28G A65U U69C | 0.45 |
| A28G A65U U72C | 0.16 |
| A28G A75U U78C | 0.8 |
| A28G C29U A45U A47G | 0.19 |
| A28G C29U A57U A64C | 0.41 |
| A28G C29U U43C U51A A64U | 0.11 |
| A28G C32A A64G | 0.26 |
| A28G C32A G63U | 0.2 |
| A28G C32G U58C U67C | 0.08 |
| A28G C32U A45U | 0.06 |
| A28G C32U A64U | 0.19 |
| A28G C32U U49C | 0.11 |
| A28G C32U U49C U66C | 0.07 |
| A28G C32U U60C U66G U80C | 0.11 |
| A28G C32U U74C | 0.17 |
| A28G C32U U80C | 0.23 |
| A28G C34G U72C U78G | 0.19 |
| A28G C34U A35U U60C A64G | 0.1 |
| A28G C34U C40U A65G U69C | 0.13 |

| Variant | self-cleavage |
| --- | --- |
| A28G C37A U43G | 0.48 |
| A28G C37A U60C | 0.13 |
| A28G C37U A45G U60C | 0.29 |
| A28G C37U C79A | 0.22 |
| A28G C37U U41C A47G A75U | 0.27 |
| A28G C37U U43C | 0.11 |
| A28G C37U U54C | 0.3 |
| A28G C38G A45G U51A U72A | 0.05 |
| A28G C38G U49A U72C | 0.07 |
| A28G C38U C44A U80G | 0.03 |
| A28G C38U U51A | 0.23 |
| A28G C39A U51A | 0.37 |
| A28G C39A U80A | 0.57 |
| A28G C39G U41A U48G | 0.23 |
| A28G C39G U54A A57G | 0.1 |
| A28G C39U G46A G70U U74C | 0.43 |
| A28G C39U U54C | 0.21 |
| A28G C40A C50U | 0.11 |
| A28G C40A U74C | 0.19 |
| A28G C40A U78C C79G | 0.21 |
| A28G C40G U49G | 0.11 |
| A28G C40G U80A | 0.23 |
| A28G C40U U51C | 0.29 |
| A28G C40U U66C | 0.21 |

| Variant | self-cleavage |
| --- | --- |
| A28G C40U U69A | 0.11 |
| A28G C40U U76A | 0.49 |
| A28G C44A A45G U78C | 0.24 |
| A28G C44A U58C | 0.15 |
| A28G C50A U51C U67A U74A | 0.09 |
| A28G C50U U54G U69C | 0.09 |
| A28G C62U A65G G70A U80A | 0.08 |
| A28G C62U A77G | 0.18 |
| A28G C62U U66C | 0.13 |
| A28G C68A U74G | 0.04 |
| A28G G30A G33A U54A U78C | 0.04 |
| A28G G30A U41G U51A | 0.11 |
| A28G G30A U48C U69A | 0.18 |
| A28G G30C C39U A56G U69C U78G | 0.25 |
| A28G G30C G42A U48A U58G U72C | 0.07 |
| A28G G30C U49C U54A | 0.11 |
| A28G G30U A35U | 0.14 |
| A28G G30U U58C G63A | 0.11 |
| A28G G33A A47G | 0.29 |
| A28G G33A G36A A64U | 0.1 |
| A28G G33A U43A U60A U67C | 0.1 |
| A28G G33C A35U U43A U69A | 0.09 |
| A28G G36A A64G | 0.26 |
